Where “and” joins values, the source holds several entries; their conditions need not be identical. Identical values can stand only once. The source gives many values for each of these; only a part stands here.
Experiment: xn = mol fraction of the nth substance listed

CCO + O
Conditions | viscosity
293.15 K, 100 kPa, x1 = 0.0376 | 1.412 mPa·s
293.15 K, 100 kPa, x1 = 0.0725 | 1.854 mPa·s
293.15 K, 100 kPa, x1 = 0.1152 | 2.348 mPa·s
293.15 K, 100 kPa, x1 = 0.163 | 2.655 mPa·s
293.15 K, 101 kPa, x1 = 0.042 | 1.602 mPa·s
293.15 K, 101 kPa, x1 = 0.09 | 2.113 mPa·s
293.15 K, 101 kPa, x1 = 0.1 | 2.71 mPa·s
293.15 K, 101 kPa, x1 = 0.14 | 2.592 mPa·s
293.15 K, 101 kPa, x1 = 0.25 | 2.98 mPa·s
293.15 K, 101 kPa, x1 = 0.28 | 2.915 mPa·s
293.15 K, 101 kPa, x1 = 0.37 | 2.67 mPa·s and 2.669 mPa·s
293.15 K, 101 kPa, x1 = 0.48 | 2.37 mPa·s and 2.497 mPa·s
293.15 K, 101 kPa, x1 = 0.61 | 2.008 mPa·s and 2.092 mPa·s
293.15 K, 101.33 kPa, x1 = 0.089 | 1.724 mPa·s
293.15 K, 101.33 kPa, x1 = 0.09267 | 2.162 mPa·s
293.15 K, 101.33 kPa, x1 = 0.14 | 2.131 mPa·s
293.15 K, 101.33 kPa, x1 = 0.21 | 2.742 mPa·s
293.15 K, 101.33 kPa, x1 = 0.2466 | 2.797 mPa·s
293.15 K, 101.33 kPa, x1 = 0.28 | 2.998 mPa·s
293.15 K, 101.33 kPa, x1 = 0.388 | 2.51 mPa·s
293.15 K, 101.33 kPa, x1 = 0.9798 | 1.241 mPa·s
293.16 K, 101.3 kPa, x1 = 0.61 | 2.008 mPa·s
293.18 K, 101.33 kPa, x1 = 0.0332 | 1.398 mPa·s
293.18 K, 101.33 kPa, x1 = 0.0714 | 1.906 mPa·s
293.18 K, 101.33 kPa, x1 = 0.1167 | 2.423 mPa·s
293.18 K, 101.33 kPa, x1 = 0.171 | 2.744 mPa·s
293.18 K, 101.33 kPa, x1 = 0.2365 | 2.832 mPa·s
293.18 K, 101.33 kPa, x1 = 0.3173 | 2.726 mPa·s
293.18 K, 101.33 kPa, x1 = 0.4194 | 2.469 mPa·s
293.18 K, 101.33 kPa, x1 = 0.5537 | 2.104 mPa·s
293.18 K, 101.33 kPa, x1 = 0.7355 | 1.698 mPa·s
298 K, 101.33 kPa, x1 = 0.1 | 1.973 mPa·s
298 K, 101.33 kPa, x1 = 0.3 | 2.467 mPa·s
298 K, 101.33 kPa, x1 = 0.4 | 2.25 mPa·s
298 K, 101.33 kPa, x1 = 0.5 | 2.025 mPa·s
298 K, 101.33 kPa, x1 = 0.6 | 1.823 mPa·s
298 K, 101.33 kPa, x1 = 0.8 | 1.438 mPa·s
298.15 K, 100 kPa, x1 = 0.116 | 2.008 mPa·s
298.15 K, 100 kPa, x1 = 0.235 | 2.536 mPa·s
298.15 K, 101 kPa, x1 = 0.02 | 1.065 mPa·s
298.15 K, 101 kPa, x1 = 0.04 | 1.323 mPa·s
298.15 K, 101 kPa, x1 = 0.06399 | 1.708 mPa·s
298.15 K, 101 kPa, x1 = 0.09 | 1.815 mPa·s
298.15 K, 101 kPa, x1 = 0.1 | 2.18 mPa·s and 1.824 mPa·s
298.15 K, 101 kPa, x1 = 0.14 | 2.13 mPa·s
298.15 K, 101 kPa, x1 = 0.1435 | 2.113 mPa·s
298.15 K, 101 kPa, x1 = 0.1605 | 2.506 mPa·s
298.15 K, 101 kPa, x1 = 0.1739 | 2.561 mPa·s
298.15 K, 101 kPa, x1 = 0.2092 | 2.617 mPa·s
298.15 K, 101 kPa, x1 = 0.2431 | 2.637 mPa·s
298.15 K, 101 kPa, x1 = 0.2688 | 2.624 mPa·s
298.15 K, 101 kPa, x1 = 0.28 | 2.4 mPa·s and 2.33 mPa·s
298.15 K, 101 kPa, x1 = 0.3195 | 2.552 mPa·s
298.15 K, 101 kPa, x1 = 0.3567 | 2.478 mPa·s
298.15 K, 101 kPa, x1 = 0.48 | 2.037 mPa·s and 2.04 mPa·s
298.15 K, 101 kPa, x1 = 0.6026 | 2.233 mPa·s
298.15 K, 101 kPa, x1 = 0.61 | 1.72 mPa·s
298.15 K, 101 kPa, x1 = 0.8 | 1.424 mPa·s
298.15 K, 101 kPa, x1 = 0.9584 | 1.275 mPa·s
298.15 K, 101.33 kPa, x1 = 0.0408 | 1.286 mPa·s
298.15 K, 101.33 kPa, x1 = 0.0807 | 1.697 mPa·s
298.15 K, 101.33 kPa, x1 = 0.09267 | 1.829 mPa·s
298.15 K, 101.33 kPa, x1 = 0.1424 | 2.152 mPa·s
298.15 K, 101.33 kPa, x1 = 0.1961 | 2.317 mPa·s
298.15 K, 101.33 kPa, x1 = 0.2826 | 2.322 mPa·s
298.15 K, 101.33 kPa, x1 = 0.4795 | 1.969 mPa·s
298.15 K, 101.33 kPa, x1 = 0.6136 | 1.694 mPa·s
298.15 K, 101.33 kPa, x1 = 0.7764 | 1.42 mPa·s
298.15 K, 101.33 kPa, x1 = 0.9798 | 1.115 mPa·s
298.16 K, 101.33 kPa, x1 = 0.0332 | 1.214 mPa·s
298.16 K, 101.33 kPa, x1 = 0.0714 | 1.617 mPa·s
298.16 K, 101.33 kPa, x1 = 0.1167 | 2.015 mPa·s
298.16 K, 101.33 kPa, x1 = 0.171 | 2.271 mPa·s
298.16 K, 101.33 kPa, x1 = 0.4194 | 2.114 mPa·s
298.16 K, 101.33 kPa, x1 = 0.5537 | 1.833 mPa·s
303.15 K, 100 kPa, x1 = 0.0725 | 1.336 mPa·s
303.15 K, 100 kPa, x1 = 0.1152 | 1.647 mPa·s
303.15 K, 101 kPa, x1 = 0.042 | 1.263 mPa·s
303.15 K, 101 kPa, x1 = 0.08887 | 1.538 mPa·s
303.15 K, 101 kPa, x1 = 0.089 | 1.687 mPa·s
303.15 K, 101 kPa, x1 = 0.21 | 2.161 mPa·s
303.15 K, 101 kPa, x1 = 0.25 | 2.227 mPa·s
303.15 K, 101 kPa, x1 = 0.28 | 2.133 mPa·s
303.15 K, 101 kPa, x1 = 0.3676 | 1.903 mPa·s
303.15 K, 101 kPa, x1 = 0.4785 | 1.744 mPa·s
303.15 K, 101 kPa, x1 = 0.48 | 1.767 mPa·s
303.15 K, 101 kPa, x1 = 0.4821 | 1.739 mPa·s
303.15 K, 101 kPa, x1 = 0.61 | 1.556 mPa·s
303.15 K, 101 kPa, x1 = 0.7918 | 1.401 mPa·s
303.15 K, 101 kPa, x1 = 0.8 | 1.279 mPa·s
303.15 K, 101 kPa, x1 = 0.8487 | 1.169 mPa·s
303.15 K, 101 kPa, x2 = 0.00096 | 0.9953 mPa·s
303.15 K, 101.33 kPa, x1 = 0.0399 | 1.057 mPa·s
303.15 K, 101.33 kPa, x1 = 0.087 | 1.416 mPa·s
303.15 K, 101.33 kPa, x1 = 0.089 | 1.343 mPa·s
303.15 K, 101.33 kPa, x1 = 0.3526 | 1.772 mPa·s
303.15 K, 101.33 kPa, x1 = 0.388 | 1.834 mPa·s
303.15 K, 101.33 kPa, x1 = 0.9798 | 0.9905 mPa·s
303.16 K, 101.33 kPa, x1 = 0.0332 | 1.063 mPa·s
303.16 K, 101.33 kPa, x1 = 0.171 | 1.907 mPa·s
303.16 K, 101.33 kPa, x1 = 0.3173 | 1.956 mPa·s
303.16 K, 101.33 kPa, x1 = 0.7355 | 1.335 mPa·s
308.15 K, 100 kPa, x1 = 0.033 | 0.948 mPa·s
308.15 K, 100 kPa, x1 = 0.235 | 1.796 mPa·s
308.15 K, 101 kPa, x1 = 0.095 | 1.254 mPa·s

Reference: the CheMixHub viscosity set
